Results as given in article PMC10726135.
The other results are listed elsewhere or left out. At the low end of the ranking, values are background and their order means little. The protein was read in a cell extract, so binding may be indirect.

Target: T1, HNF4alpha2 (COS-7 nuclear extract) (UniProt P41235)
T1 sequence: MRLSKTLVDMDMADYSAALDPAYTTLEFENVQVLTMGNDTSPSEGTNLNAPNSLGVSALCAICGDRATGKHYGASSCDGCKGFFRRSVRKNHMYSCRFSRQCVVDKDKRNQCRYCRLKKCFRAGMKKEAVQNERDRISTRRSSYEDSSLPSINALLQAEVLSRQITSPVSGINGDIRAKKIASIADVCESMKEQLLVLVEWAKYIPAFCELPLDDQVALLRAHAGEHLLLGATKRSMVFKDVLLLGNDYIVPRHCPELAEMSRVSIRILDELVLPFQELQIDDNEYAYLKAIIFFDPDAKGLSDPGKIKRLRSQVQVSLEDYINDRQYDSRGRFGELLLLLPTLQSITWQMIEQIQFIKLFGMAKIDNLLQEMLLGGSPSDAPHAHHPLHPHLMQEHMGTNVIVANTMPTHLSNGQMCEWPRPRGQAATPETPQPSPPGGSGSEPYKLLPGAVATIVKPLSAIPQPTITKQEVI
Experiment: protein-binding microarray
Conditions: COS-7 nuclear extract on double-stranded Agilent 4x180k PBM; binding buffer, salt, pH and temperature not given; high values mean tight binding; double strand, one strand shown; sequences stand for … in …GCCTAGGGAGATTAGAGTATCGGTCGA

Sequence | binding signal (log2 normalized intensity)
CTTATAAATCTTCAACTGGAGGATAAAGTT | 1.15
TCCTATTCGGTGCTGACCTTTGTTCACATT | 5.89
GCTCACTTGGGGGTGGGGTGCTGCCTTTCC | 0.498
CATCATCTCAGGGAGTGCAAACTTCTTTGA | 0.898
TTAGGGAGGGGCCAGGACAAAGGTCCTGTG | 1.38
TGCCTAAATCCAAAGGGCATCAGCCCCAAT | -0.554
CTTCAGCATCTTCAACTGTGTGAGCTGATC | 1.61
GCTCTGTTTTCTGACGCAACAGAAAACTCA | -1.18
TAGAACAGGGCTTTAATTACCTGTTCTAAG | -1.18
AAAGGTCAGTCCCGCAGTGAGGGACAAGGC | -1.13
AGACTTTTAAGTGGGGTCAAAGGGTACAAA | 5.06
CTAGCAAATACAAGGACACTGAAAGGCATT | -1.12
TTCATAATTACCATTCTTGAGGACAGGCCA | 0.321
GACCTGCAAACAGCACTCTCTGATTACACA | -1.06
CTTCAGATGCCATGTCTAAAGGCTGTGTCG | 1.99
GTCCCTGCCCTTTGTCCAGGGTGAGAGGGA | 1.39
AGGTTGTACTATGACCCAAACTTCACAAAA | 2.07
GGCGTGGACTTCGCTCCGCCGCTAGGTGGC | 2.49
CGATAAGCTGACCCCAAAACCCCCAAAGGT | 4.67
TGGACAAACAGGCTGAACATGACTGGCATT | -1.15
TCCACTCTCCTATCTTTCCCTCCACTTCCT | 1.05
TGAGCCCAGTGGAGTAGGCTTTAGATAAGG | -1.14
AATTCTTGTCCCTTTCAAGGGCTTACAACT | -0.219
ACAAAGTTCCTGAGATAAAAAGAAGCTTGG | -1.21
AGCTCCATCTGAACTCTTCATGGACTCCTC | 2

Sequence | binding signal (log2 normalized intensity)
CTGGGTCTGTCCTTTGTGTTTATGGCAAAT | 2.27
AAAAGAGCATAAGGTTTCCATCAAGCCTTT | -1.04
TTTTCAACAATGTTATCTTTTCAAGGATGT | 1.68
CCAACGGTCGGAAGGGAGGTGCCATGTCAC | -0.713
AGGGTAGGAGCCTCTGATTTGCTGATCCTA | -1.14
AACTCTGAAGATTCACAGGTGGGATGCAAA | -0.782
CCTGCTGGCCTGGGAACTTAGCGATTTGGA | -1.07
GAAGATAAATCAGAAGAAAAAGGTAAGGAG | -1.25
CTCCGCCCCGTTCCCGGCAGCCCGCGCGTG | 3.09
CCAGAATTCTCCCTGCAGTCCTCTGCTTAT | 0.852
CAAATTCCACACCCCCCACTCTTCATATCT | 3.21
GTCTGGCATACAGGGTCCAAAGGTGTCAAG | 4.29
GAGGAGTTAAAGCACAGTGTCTTTGTTTGG | 1.58
CCAGGAAGCAAGACAATGCACTCATAACTA | -1.18
TCGTCCCGTCAATCTGCAGCCGCCGGAGAA | -1
CCTGGTATTAATGAGGCAAAGGTCAGGAGT | 4.05
CTGGACTATGCCTTGAACTTTAAGGCACCT | 1.07
GGTAGCCACTGACAGGAGGTATGCCAGGAA | -1.06
TTTGACCGCTCATTTGATCCTCACAGTGCC | 0.124
CATTCATACATTTGCCTGAACTTTAAACTG | 3.65
AGTTAGCTACACGGGCCTGAAAACTGGAGG | -1.16
ACTCCTGATAGCTAGAGAGTTCAAGAAGGG | -1.03
AAGAAACATTCCAGACAGGAGGATTCCTGA | -1.11
GGGTCCAGGTGCTGGGATGATTCCCTTATC | 0.73
GAGGCTCTTATCAGCTGCAGGGATTATCAA | -1.04

Sequence | binding signal (log2 normalized intensity)
TTTGGGCCAAATATTTATGGCTTGGGTTTA | 0.64
TATCTTACGCAACTGAAATTGCACTCTTTG | 0.872
GTTTCGTAATATTTAGGTGTTTACTTACTG | 1.45
TGAGCTAAGTCCCAAGGGATAGGCAGGAGT | -1.09
TGTTTGTTCTTGCTACCTACTCATTCATAT | 0.973
CACTAGGACATATATGAGGAAGGGTGTGTA | 0.919
TCAAAGGTCAGCTCTCCTTTGTCTTCTTGT | 2.3
GGTGAGGGATGAGGACTTTGATCAGCAATG | 4
CACCTATGTGGTCAAAACTTTGTTTGAGTT | 1.69
GCTTACAACTCTAAGGGGGAAAGTCCACGT | 3.75
CAGGCCTGTGTCCAAACTTCAGGATTCTTT | -0.806
TGTTATCAAGTGAGAAACCACAGGAGTGCC | -1.06
GATCCCTGAACTTTGCTCCCACCCTGCAAT | 4.6
AGAATCTACAAGGACCAGATTCTTAAAGGG | -1.19
GTCTTATCTACCTGGCTTGTTTGCAAAGCA | 0.899
CTGAAAAATGTCAGCAAAGTGTCAAGTAGA | -0.924
ATCTGCATGGACAGCACTTAGGGTTCAAAG | 1.71
GGCCATTCTGATTTGATAAGATGTGTAAAA | 1.05
GGTTAAAGGTTATTTGCTCACCAGTGACCA | 2.07
TTCCCTCCCTGGTATGTACTTTCTTTTGGC | 2.04
GAAAAAGTACACACCTGCAACCTATTTCTT | -1.05
GCCTTGTGGGAGCTGTAGTACGCTCCCTGT | 0.248
AGTGTCCCACTTCAGGCAGGAATGCTGAAC | -0.0191
CGCCAGGTGGCCGAGCAGGACGCTACCCGC | -1.18
CCCTCACTTACATCCTCAGGTAAAGATCAA | 1.26

Sequence | binding signal (log2 normalized intensity)
GACCTCTCTCTCCCCAGACAGCCACTGTTT | 2.51
AGAGGTCAGAAGTCCAAAATCAGTCTCAGT | 3.2
TCTAAAGTGACTTAGCAGGATTCTTGCTAC | -0.752
TTCTTCCTATGGGATCAAAGTGCGACAGGG | 3.09
CAAAGAGAAATGGTGTGGACAGCAGACAAC | -1.11
GAAGGGAGGTGCCATGTCACCGCACAGGGG | -1.24
CAGAAGGAGGGCGGGGAGTCTCCTGGGTAA | -0.989
GCGGGGCTCAAAGGCGGCCCGGGTGGGGGT | -1.08
TTCACCAAGAGGGAAAAGATGGTCTCTCAC | -1.13
TGACCTGCAAGGTTCTCTCTTCTTCCCCTC | 2.47
GAAATCATTCCAGAAAGACAGCTGCATTTG | -1.18
CAGCAATAAATACCAAAGCCATGGCTCCAA | -1.09
CCCCCCACCCCACACACACACAGCATTCCA | 5.05
AGCCAGAGGCAGCAAGGTCAAAGTGCGTCC | 5.61
TCTGATACACTCGCCGTGTGACTGAGGGCT | -1.22
CCTTTCTGCCCTTTGAAGCATGTGATCTAC | 2.38
CGGAGAGCAGGGCGTGGACTTCGCTCCGCC | 4.92
GAGCCCCTGTGATACAACGGTTCAAAGGAC | 2.16
TCAGTTTGGCTCTTATGTCCCTCCTGACCT | 3.25
GGTCTGTTTGTGAAACAGTGGGCAATATGA | 1.14
AACTCACTACAAACGCCTCTAAGCTCTTTC | -1.15
TTTCTAAGAAAGTTCAGCCCTTAGGACCAG | -1.17
AAATCCCCAAACTTAAAAGAAGCTACTAGC | -1.17
TTCCCAGGAATTGGCCTGTGCCTCAATTGC | -0.315
TTCCTTTCCCTTTATTTAGCCTCACTAAGA | -0.978

Sequence | binding signal (log2 normalized intensity)
CCACCCACACTGCAGCAAAACTTTAGGACT | 0.141
TGTGTGTAGGCATAGGAGAAACACATAAAC | -0.883
GTCAGTCTTTGTTCTAGTAAGGCCTTCAAA | 1.05
ATTGGGATGGCAGCTTCATTCCAGCCCCAT | 1.27
GAGGAAACAAACAGATATGCATTTGTCTCT | -1.17
CTCCGCTGAAGTCAATGTCAGCTAGAGGCC | -1.13
AGCAGAAAAGCTGTACCAATTATTGCGAGT | -0.745
TTTTCCAGCAGCGGATCCAACCTGTTCTTT | 0.629
TGACGGTATGTGAATGCCTGGGCATGGCTG | 0.0275
TGAACTTTGCCTTGTACACAAAGACATTGC | 2.29
GAATGCAACCACACCAACATGGACTTTGTC | 6.09
CCCTCCTTAAGACCTAGATGGAATGTTGTG | 1.29
TCCATATTGCAGACAGCATAGGAAGTGGGG | -1.13
AACTTTGTTTGAGTTCCAAAGTCCATGTTC | 6.61
CTTTTCACAGGAGAGGAGAAAGAGCAATCT | -1.08
GCCCATGCTGGACCCTGGGCTTAGTTGCTC | 2.35
TGCTGCACTGATAAGAAAGCAAAGTCCAAC | 4.21
CCCCTGTGCAAACTTTTTCCTTTTCTTATC | -0.0646
TTAACGCTAAAGAGGTATCATGAGGTATAT | 1.04
AGCTGGGAGCTGCCGCAACATTGTCCAGCA | -1.19
GTCTTACCGGGATTTTGTTGGGGAACTTTG | 1.82
TTTTTTCCCCTCCCTCAGCTCTGCCCAGAC | 4.53
ACATTCCACTCAGTCTCTTGAAATCCCAAG | -1.03
CACCCTACCCCCATACTTTATTTAGCTTTA | 1.79
CCTCCTCCTCCTTTTTTTTTTCAAGTGTTA | 1.42

Sequence | binding signal (log2 normalized intensity)
CTCACATGAGCTAGAGCTCGTGTCATCTCT | -0.899
TGTGCTGGATGTTTCCTTTGAACTCTGCAT | 2.37
GGACTTCGCTCCGCCGCTAGGTGGCGGGCT | 1.42
GTTTTCGCAGCAAGTTACACAAGTAGAATG | 0.574
CAGATTTAATGAAATACAGTAGACTTTTTT | -1.27
GCAGGACAGTTTTGTGTGTTTAATGTTTTC | 1.37
TGGGAGAACCTGTGCTTCTGGTTCTGGACT | 2.15
GCCCTTCCCCCCTCTGCAGCCTTACCCAGT | 4.59
AATACTTATGATATGAAGCATTGCTTGAGT | 0.613
ATTATGGTAGGCAGCCTCTGAGATGGACTC | 3.44
AGAAGTAGGATAAGGGTAGGGCCAATCTCT | -1.14
GCTCTGGAATCTCTGGATTTCAGGTACACA | 0.577
TAGATAACTCCAAGATTAGTGGGAAAGCTA | -0.908
GCAAGGAATTCAACCCTTGTCACTTTCCCT | 1.24
ATCAAAACCTTCATCTCTCTTTGTTGACAT | 1.81
ACCCCTGAATAGGTCTTGGAATGTGACGGC | 1.38
GCAGAGGCTGGGGCCCTCTTCCAGCTGAGA | -1.12
CTTTGAAGCATGTGATCTACTCCCTGTTCT | 0.613
TTCCTGGTATCAGAGTGGAGCCAGATGCAC | -0.737
TGGGAAAAGGCGCATGCATAACCAAACAGA | -1.1
